# From PubChem BioAssay (NCI)
#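 Method: 48-hour compound exposure of cells in 96-well plates, five concentrations, linear interpolation of endpoints. Abbreviation: GI50, concentration required for 50% inhibition of growth. TGI marks complete inhibition of growth.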
# System: NCI-H322M lung
# Assay: NCI-60 cell line screen, 48 h
Compound,GI50,TGI
CCOP(=O)(OCC)OC[C@]12CCC(C)(C)C=C1[C@H]1CC[C@@H]3[C@@]4(C)CC[C@H](OP(=O)(OCC)OCC)C(C)(C)[C@@H]4CC[C@@]3(C)[C@]1(C)CC2,1560 nM,2940 nM
COc1ccc2[nH]cc(-c3cc(N)n4nc(-c5c[nH]c6ccc(OC)cc56)cc4n3)c2c1,2200 nM,5420 nM
Cc1ccc2sc3c(c2c1)OC(N)=C(C#N)C3c1cccc(F)c1 (stereo not drawn),903 nM,39000 nM
Cc1ccc2c(n1)C(=O)C(Cl)=C(Nc1ccc(C(=O)OC(C)(C)C)cc1)C2=O,> 92500 nM,> 92500 nM
